The other results are listed elsewhere or left out. At the low end of the ranking the order means little.
target: T1, GST-Rok (full length) (UniProt O34857); assay: protein binding microarray; conditions: Rok is a gene silencer of Bacillus subtilis; high values mean tight binding; most listed sequences are background and not binding sites; double strand, one strand shown;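 also: rank score from −0.5 (least bound) to 0.5 (best bound)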
T1 sequence: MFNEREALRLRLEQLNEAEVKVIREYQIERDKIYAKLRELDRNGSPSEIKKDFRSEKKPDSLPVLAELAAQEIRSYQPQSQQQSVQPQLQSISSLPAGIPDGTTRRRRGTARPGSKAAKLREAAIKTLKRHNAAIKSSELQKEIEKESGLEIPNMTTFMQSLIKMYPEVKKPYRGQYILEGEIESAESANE

Sequence	binding signal
ACTTAAGT	0.212 E-score
GAATAAGC	-0.0545 E-score
AACACCAA	0.000516 E-score
ACTAAATG	0.277 E-score
ATTTACCA	0.322 E-score
AACACTTC	0.113 E-score
ATTGCTTC	0.0898 E-score
CACGGTGC	-0.28 E-score
ACTTGTAA	0.168 E-score
ATCAAGGC	-0.121 E-score
CTCTGCAG	-0.0862 E-score
GGGGTAAA	0.0577 E-score
CGGAAATC	0.0575 E-score
TATCCGCA	0.0642 E-score
TAAAACGA	0.111 E-score
CAGACTCG	-0.06 E-score
CGCGAGGC	-0.245 E-score
GCGTTGAA	-0.212 E-score
GAACGAGA	-0.0634 E-score
GTAGTAGA	0.33 E-score
CGTGCCGA	-0.261 E-score
ACAAGGGG	-0.231 E-score
GCAGAGGA	-0.0443 E-score
GAGCAGTA	-0.0236 E-score
CGTCAATA	0.12 E-score

Sequence	binding signal
ATAATATA	0.453 E-score
AAGTCCGG	-0.245 E-score
GAGACTGA	0.0243 E-score
AGGACCCC	-0.256 E-score
CCCGGTGA	-0.283 E-score
ATAAAATG	0.203 E-score
ACCATCGA	0.0749 E-score
GCGCACGC	-0.158 E-score
AATGGGCG	-0.262 E-score
CCAGACGC	-0.247 E-score
CCATAAAC	-0.00276 E-score
CGACGCTC	-0.165 E-score
AACCATGG	-0.0493 E-score
TCTGGAAA	0.0895 E-score
AATGGCGA	-0.0409 E-score
ATGTCGAA	0.195 E-score
CGGACCCA	-0.264 E-score
ACATCACG	-0.15 E-score
ACAAATAG	0.317 E-score
ACATGAAT	0.214 E-score
ACGTTAAC	0.02 E-score
CACCTGAG	-0.158 E-score
AACTTCTT	-0.00379 E-score
CACGTATC	-0.00485 E-score
GAGATCAA	-0.104 E-score

Sequence	binding signal
AGTCGTCA	0.00488 E-score
AACTTGCC	0.13 E-score
GCTACGGA	0.149 E-score
AGACCAGG	-0.179 E-score
CTTGAGAA	-0.0173 E-score
AGGTGAAA	-0.0291 E-score
AGTCTTAG	-8.19e-05 E-score
CAAATGTC	-0.136 E-score
CCCAAAGC	-0.18 E-score
AACTGGTA	0.325 E-score
AACCCATC	-0.0588 E-score
TCGCCGCA	-0.0504 E-score
AACTCGTA	0.171 E-score
TCGGGTCA	-0.14 E-score
ATACGAAG	-0.0252 E-score
GATGGACC	-0.171 E-score
CGTCTTAA	-0.0347 E-score
CAGTTTAC	-0.0117 E-score
AATACTAC	0.419 E-score
CAACAATC	0.18 E-score
AACAAATC	-0.0733 E-score
AGGATCAT	-0.056 E-score
CCGACGGC	-0.271 E-score
AAAGGGCC	-0.386 E-score
GCCTCTAA	-0.168 E-score

Sequence	binding signal
TACGGGCA	-0.212 E-score
AGGCATAA	0.0499 E-score
GTAAGAAA	0.327 E-score
AATGCGCT	0.109 E-score
ATCTTAAG	0.0411 E-score
CCTGTACA	0.0121 E-score
AGCATATG	0.233 E-score
GTGCTTCA	-0.109 E-score
AAATTAAC	0.305 E-score
CCAACGGG	-0.219 E-score
TAATAGTA	0.401 E-score
TCAAGTGA	-0.0359 E-score
ATTGCGCC	-0.157 E-score
CATCGGAC	-0.0456 E-score
CCTTACTA	0.145 E-score
AAATACGA	0.118 E-score
CATCGAGA	-0.0077 E-score
AGCCGAAT	0.0128 E-score
ACGAGCTC	-0.355 E-score
ACACAATC	-0.0151 E-score
ATAGGCAT	-0.14 E-score
CATGGGTA	0.113 E-score
AAGGTGGA	-0.167 E-score
AGACGATG	-0.0471 E-score
ACGATCAA	-0.0817 E-score

Sequence	binding signal
TCCAGCCA	0.0502 E-score
GGGAAACA	0.0326 E-score
CAGCTAAA	0.0144 E-score
TCAAGCCA	-0.209 E-score
AGTTTCCA	0.18 E-score
TACGGTGA	0.0146 E-score
GGTTGCGA	-0.0742 E-score
ACCCGCCA	-0.286 E-score
AGACGTAC	0.113 E-score
AGTCCACA	-0.0563 E-score
ATAACAAG	0.129 E-score
CAATGGAG	-0.17 E-score
AGCCCGCT	-0.234 E-score
AACACGCC	-0.215 E-score
ACGCGGAC	-0.204 E-score
ATGCGCAG	-0.0163 E-score
AGTGACTG	-0.18 E-score
CTTTCGAC	-0.178 E-score
AAGTTATG	0.294 E-score
CGCTGGAA	-0.205 E-score
ACCCTCAA	-0.259 E-score
GTAAAGAA	0.0756 E-score
CGAGGAAG	-0.258 E-score
AAACCAGC	0.0208 E-score
CCGCAGAG	-0.152 E-score

Sequence	binding signal
AACGGCTA	0.0361 E-score
CATATAAC	0.268 E-score
AGGAAATG	-0.0514 E-score
GCTCTGGA	-0.233 E-score
GACCCAAA	-0.0617 E-score
CCTCACCC	-0.165 E-score
AATGGCAG	0.0409 E-score
AGTATAGC	-0.0248 E-score
CACTATAG	0.132 E-score
AACTAAGG	0.149 E-score
AGACGTGG	-0.238 E-score
AGGAAGAT	0.126 E-score
ATAAATTC	0.221 E-score
AATGACTA	0.122 E-score
GCCCGAAC	0.00454 E-score
GCCCGACC	-0.349 E-score
CAAGGTGA	-0.15 E-score
AACCAATA	0.213 E-score
AGACGTAA	-0.0573 E-score
GGCCGATA	0.0786 E-score
CAATTGGG	-0.169 E-score
GCCAAACC	-0.183 E-score
GCGCCAAA	-0.0786 E-score
GCTACAAA	0.159 E-score
CCTTGAGA	-0.16 E-score

Sequence	binding signal
GCCTTAGC	-0.0735 E-score
ACTGCGGA	-0.234 E-score
TCCGGCGA	-0.169 E-score
CTGGGCAA	-0.124 E-score
GGCTGCAA	-0.403 E-score
CGACTCCG	-0.293 E-score
ACCCTCGT	-0.215 E-score
TAGGTACA	0.207 E-score
CGAGCAAG	-0.16 E-score
ACTCAGAG	0.0293 E-score
AGGGACCC	-0.204 E-score
CTGAAGGA	-0.255 E-score
CGACAGCG	-0.036 E-score
TAGTTGGA	-0.00389 E-score
CGAGGGTA	-0.0923 E-score
CCAGCTAG	0.0501 E-score
AACAGTGG	-0.0354 E-score
CCTAGGCA	-0.107 E-score
CGAAAGTC	-0.0924 E-score
CGTACATA	0.243 E-score
ATTGCTGC	0.156 E-score
CAGACTTC	0.00972 E-score
